# From PubChem BioAssay AID624417 (National Center for Advancing Translational Sciences (NCATS), 2012)
# Out of some 410,000 compounds screened, about 6,400 (1.6%) were called active. Inconclusive means that the source gave no clear call. Such entries were picked first, then a sample of the others. The call rests on the fitted dose curve; in most records, active means well fitted inhibition curve with a large enough effect; inconclusive means small, poorly fitted or top-dose-only effect; inactive means no such curve, though single readings can be large or run the other way. Potencies of inconclusive entries are left out as doubtful fits.
# Target: Glucagon-like peptide 1 receptor (Homo sapiens) (UniProt P43220)
# Assay: qHTS of GLP-1 Receptor Inverse Agonists (Inhibition Mode); further: nearly all actives have a fitted effect of over 55% in size
# Conditions: HEK293 GLP-1R CRE-luciferase, luminescence, 24 h, GLP-1R form is constitutively active; activity change, negative = inhibition: at 38.3 µM (top of the series) unless noted
# Outline: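 Assay principle: reduced luminescence from a cAMP-responsive reporter in HEK293 cells co-expressing a constitutively active GLP-1R. Conditions: 24 hr compound incubation, 37 deg C, 5% CO2.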
# On the % scale 0 is the no-effect control and ±100 the full control effect; potency means the concentration at half of the fitted maximal effect; tags describe the fitted curve by direction and shape.
# Chain of UniProt P43220 (P43220 whole entry, looked up): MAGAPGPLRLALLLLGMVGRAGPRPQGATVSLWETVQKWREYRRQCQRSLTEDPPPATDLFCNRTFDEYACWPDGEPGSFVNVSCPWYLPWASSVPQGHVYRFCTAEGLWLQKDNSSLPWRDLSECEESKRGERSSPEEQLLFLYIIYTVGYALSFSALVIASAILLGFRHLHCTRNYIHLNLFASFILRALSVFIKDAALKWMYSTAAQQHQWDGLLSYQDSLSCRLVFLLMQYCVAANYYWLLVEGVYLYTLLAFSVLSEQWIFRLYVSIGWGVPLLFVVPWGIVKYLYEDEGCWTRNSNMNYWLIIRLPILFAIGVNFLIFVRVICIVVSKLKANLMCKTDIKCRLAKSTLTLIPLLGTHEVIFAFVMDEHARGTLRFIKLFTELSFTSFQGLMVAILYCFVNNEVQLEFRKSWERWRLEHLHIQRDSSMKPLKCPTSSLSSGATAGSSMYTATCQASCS
Structure (SMILES),"activity change, negative = inhibition",Potency
C[C@@H]1CCC(=O)N(CC[C@H](N=[N+]=[N-])c2ccccc2)CC1,inactive: 12.9%,–
CCOc1ccccc1NC(=O)C1CCCN(S(=O)(=O)c2ccccc2)C1 (configuration not stated),–,"inconclusive [inhibitor, partial curve, poor fit]"
COc1ccc(S(=O)(=O)N(Cc2nc3ccccc3c(=O)[nH]2)C2CCCC2)cc1,–,"inconclusive [inhibitor, partial curve, poor fit]"
CCOc1ccc(CN2CCN(Cc3nc(C(C)C)cs3)CC2CCO)cc1 (configuration not stated),–,"inconclusive [inhibitor, partial curve, poor fit]"
CC1CCCC(C)N1CC(O)COc1ccc(Cl)cc1 (configuration not stated),–,"inconclusive [inhibitor, single point]"
Cc1onc(-c2ccccc2)c1C(=O)Nc1nnc(COc2ccc(Cl)cc2)s1,–,"inconclusive [inhibitor, single point]"
COc1cccc(CNC(=O)CSCC(=O)Nc2ccc(C)cc2)c1,–,"inconclusive [inhibitor, single point]"
Cc1ccc(NC(=O)CN(C)C(=O)COC(=O)c2ccc(Cl)cc2O)cc1,–,"inconclusive [inhibitor, single point]"
CC1=CC2=NC(=O)/C(=C/c3coc4ccc(Cl)cc4c3=O)C(=N)N2O1,inactive: -24.6%,–
Cc1ccc(NC(=O)Nc2nnc(-c3ccncc3)s2)cc1,–,"inconclusive [inhibitor, partial curve, poor fit]"
Cc1cc(NC(=O)CC(C)C)c(=O)n(Cc2c(F)cccc2Cl)c1,–,"inconclusive [inhibitor, single point]"
COc1ccccc1CNC(=O)c1cc(-c2cc(F)ccc2OC(C)C)n[nH]1,–,"inconclusive [inhibitor, single point]"
COc1ccc(C2=CSC3=NCCN23)cc1Br,–,"inconclusive [inhibitor, single point]"
NNC(=O)CN1CCN(c2ncc(C(F)(F)F)cc2Cl)CC1,–,"inconclusive [inhibitor, single point]"
CCCCCCOc1ccc(/C=C/C(=O)Nc2sc3c(c2C(=O)OC)CCC3)cc1OC,–,"inconclusive [inhibitor, single point]"
COC(=O)[C@]12CCCCC=C1N(Cc1ccc(Cl)cc1Cl)C(=O)[C@H](CC(=O)NCC1CCCCC1)C2,–,"inconclusive [inhibitor, partial curve, poor fit]"
Cc1cc(O)c(C(C)C)cc1NC(=O)Nc1cc(Cl)ccc1Cl,–,"inconclusive [inhibitor, partial curve, poor fit]"
Cc1ccc(/C=N/NC(=O)CSc2nc3ccccc3c(=O)n2-c2ccccc2C)s1,–,"inconclusive [inhibitor, partial curve]"
CCOc1ccccc1NC(=O)c1ccc(NC(=O)c2ccco2)cc1,–,"inconclusive [inhibitor, partial curve, poor fit]"
CCOC(=O)[C@]12CCCC=C1N(CCC1=CCCCC1)C(=O)[C@H](CC(=O)NCc1ccc(C)o1)C2,–,"inconclusive [inhibitor, partial curve, poor fit]"
CCN(c1ccccc1)S(=O)(=O)c1cc2c(cc1C)N(C)CCO2,–,"inconclusive [inhibitor, single point]"

Structure (SMILES),"activity change, negative = inhibition",Potency
CCCCCc1ccc(-c2cn(Cc3ccc(C(=O)c4ccccc4)cc3)nn2)cc1,–,"inconclusive [inhibitor, partial curve, poor fit]"
CCc1ccc(C(=O)Nc2cccnc2Oc2ccc(Cl)cc2)cc1,–,"inconclusive [inhibitor, single point]"
COc1cc(/C=N/N(C)c2ccccc2)cc(Cl)c1O,–,"inconclusive [inhibitor, single point]"
Cc1cccc(NS(=O)(=O)c2nnc(NC(=O)c3ccc(Cl)cc3)s2)c1,–,"inconclusive [inhibitor, partial curve, poor fit]"
CC(C)(O)CNC(=O)Nc1ccc(Cl)c(Cl)c1,–,"inconclusive [inhibitor, partial curve, poor fit]"
COc1ccc(OC)c(-c2cc(C(=O)Nc3ccc(C)c(C)c3)no2)c1,inactive: -6.76%,–
CN(C)c1nc(Nc2ccc(Cl)cc2)nc(OCC#N)n1,inactive: -9.39%,–
CC(C)C1Nc2c(O)cc(Cl)c([N+](=O)[O-])c2C2C=CCC21 (configuration not stated),–,"inconclusive [inhibitor, partial curve, poor fit]"
COc1cccc(NC(=O)Nc2nnc([C@@H]3C[C@H](O)[C@@H](CO)O3)s2)c1,–,"inconclusive [inhibitor, single point]"
CC(C)[C@@H](CO)NC(=O)c1ccc2c3n(nc2c1)-c1ccccc1CO3,–,"inconclusive [inhibitor, partial curve]"
COc1ccc(NS(=O)(=O)c2cccc(N/C(=N\S(=O)(=O)c3ccccc3)c3ccc(F)cc3)c2)cc1,–,"inconclusive [inhibitor, single point]"
COc1ccc(C(=O)CSc2nnc(COc3ccccc3)n2Cc2ccco2)cc1,–,"inconclusive [inhibitor, single point]"
CCOC(=O)COc1c(-c2ccc(OC)cc2)oc2ccccc2c1=O,inactive: -7.27%,–
CCN(CC)CCn1c(NCc2ccc3c(c2)OCO3)nc2ccccc21,–,"inconclusive [inhibitor, partial curve, poor fit]"
OC(CCc1cccc(Cl)c1)c1cccs1 (configuration not stated),–,"inconclusive [inhibitor, single point]"
Cc1ccc(NC(=O)CN(Cc2ccco2)Cc2ccccc2O)cc1C,–,"inconclusive [inhibitor, partial curve, poor fit]"
CC1CCc2c(nc3sc4c(c3c2N)CCCC4)C1 (configuration not stated),–,active: 5.62 µM
O=C(Nc1ccc(F)cc1)C1CCCN1S(=O)(=O)c1ccc(Br)cc1 (configuration not stated),–,"inconclusive [inhibitor, partial curve, poor fit]"
O=C(COc1ccc2c3c(c(=O)oc2c1)CCC3)N[C@@H](CSCc1ccccc1)C(=O)O,inactive: -4.13%,–
Cc1cc(N/N=C/c2ccc(O)cc2O)nc(-c2ccccc2O)n1,–,"inconclusive [inhibitor, single point]"
CCOC(=O)C1=C(CN2CCN(c3ccc(Cl)cc3)CC2)NC(=O)NC1c1ccc(OC)cc1 (configuration not stated),inactive: 2.2%,–

Structure (SMILES),"activity change, negative = inhibition",Potency
COc1ccc2[nH]c(C(=O)N/N=C/c3ccccc3OC)cc2c1,–,"inconclusive [inhibitor, partial curve, poor fit]"
Cc1ccc(CN2CCSc3ccc(C(=O)N4CCOCC4)cc32)cc1,–,"inconclusive [inhibitor, partial curve, poor fit]"
CCc1nc2ccc(C(=O)N3CCN(c4ccccc4F)CC3)cc2nc1CC,–,"inconclusive [inhibitor, partial curve, poor fit]"
Cc1ccc(Cl)cc1N1CCN(C(=O)Cn2cnc3onc(-c4ccc(F)cc4)c3c2=O)CC1,–,"inconclusive [inhibitor, single point]"
CC(C)c1ccc(/C=C2\SC(=O)N(CC(=O)NCCCn3ccnc3)C2=O)cc1,–,"inconclusive [inhibitor, single point]"
O=C1OC(c2ccccc2)=C/C1=C/N1CCCCC1,inactive: -1.72%,–
O=C(CSc1nccn(-c2cccc(F)c2)c1=O)Nc1ccc(Cl)cc1F,inactive: 6.67%,–
CC(O)CNc1nc2sc3c(c2c(=O)n1Cc1ccco1)CCCCC3 (configuration not stated),–,"inconclusive [inhibitor, full curve, poor fit]"
Cc1ccc(NC(=O)C2SC(=Nc3ccccc3)C(C(=O)Nc3ccc(Cl)cc3)=C2N)cc1 (configuration not stated),–,"inconclusive [inhibitor, partial curve, poor fit]"
Cc1ccc(SC[C@H](c2ccccc2)N2CCN(CC(C)C)CCC2=O)cc1,inactive: 9.04%,–
O=C(/C=C/c1c(F)cccc1Cl)c1ccc(F)cc1,–,"inconclusive [inhibitor, single point]"
COc1ccc(-c2cc3ccccc3n2CC(O)Cn2nc(C)cc2C)cc1 (configuration not stated),–,"inconclusive [inhibitor, single point]"
CC(NC(=S)NC1CCCCC1)C(c1ccccc1)N1CCOCC1 (configuration not stated),–,"inconclusive [inhibitor, partial curve, poor fit]"
Cc1onc(-c2c(F)cccc2Cl)c1C(=O)OCC(=O)N(C)c1ccccc1,–,"inconclusive [inhibitor, partial curve, poor fit]"
O=C(NCC1CCCCC1)c1cc([N+](=O)[O-])ccc1Cl,–,"inconclusive [inhibitor, partial curve, poor fit]"
Cc1cc(C)c(C)c(SCC(=O)Nc2oc(C)c3c(C)n[nH]c(=O)c23)c1C,–,"inconclusive [inhibitor, single point]"
COc1cccc(C2CC(=O)Nc3c2c(=O)n(C)c2nc4ccccc4n32)c1OC (configuration not stated),inactive: 5.82%,–
COc1ccc(C(CNS(=O)(=O)c2ccc(F)cc2)N2CCN(C)CC2)cc1 (configuration not stated),–,"inconclusive [inhibitor, partial curve, poor fit]"
CS(=O)(=O)N1CCN(C/C=C/c2ccccc2)CC1,–,"inconclusive [inhibitor, single point]"
CCOc1ccc(C(C)=O)cc1CSC(=N)N,–,"inconclusive [inhibitor, single point]"
